Where a chain is given by its changes, count along the chain named. Some of the results follow.

T1: UNK ZnF1-3 (human, UniProt Q9C0B0 31-174)
T1 sequence: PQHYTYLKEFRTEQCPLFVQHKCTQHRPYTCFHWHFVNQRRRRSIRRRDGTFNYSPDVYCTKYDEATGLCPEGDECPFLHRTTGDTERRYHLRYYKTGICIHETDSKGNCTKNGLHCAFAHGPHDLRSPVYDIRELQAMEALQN

B1: chr8:104444897:104444898:+_ENSG00000164934_ENST00000297579|hu_mus|FALSE|FALSE (ssRNA)
RNA: GGGAGUUCUACAGUCCGACGAUCUGCAGUAAAAUUGAAAGCUUCCAUAGGGUUCCAACAGAUUGUAUUUGUCCUCAUUUCCAGGAUAACCUUUUUCAAAGGAGUAGCUUGCCGCAUAUCAUACAGUACUAUAUUCCUAUCAGACAACAGAGGAUUGAGCAUCA
B2: chr2:198351390:198351391:-_ENSG00000144381_ENST00000345042|hu_hu|hu_hu_hu_mus_False|38_108 (ssRNA)
RNA: GGGAGUUCUACAGUCCGACGAUCUCAUUCUCACUCUCCACAGAAAGGCUGCUUCUGAACUCUCAUGUGGUGACACAGCGCUACAGUCCUGAUGCUCACAGAAUAGUAGAGAUGCCUCAGUGAUUUAAGUUGAAAGCAGGACACCAACAGAGGAUUGAGCAUCA
B3: chr11:51414962:51414963:-_ENSMUSG00000020358_ENSMUST00000074669|mus_hu|FALSE|FALSE (ssRNA)
RNA: GGGAGUUCUACAGUCCGACGAUCGUAUGGCUUGUAGUUAUUCUGAUGGCCACCACGUCGCUGGCUCUUGCCGUAGUUUGUACUACCCUGACUGUAGUCGUAGCCGGGGCCGUAGCCGUAAUAGCCAUAGGGCGAGUAGUCGUACAACAGAGGAUUGAGCAUCA
B4: 123983550_123983670_1669_CDS_ENSG00000168916_ENST00000504926|human|control|control (ssRNA)
RNA: GGGAGUUCUACAGUCCGACGAUCGGAGUCCUCUAGUUUCCCCAGCUUGGCAUCCAUUUUUGGGCUUCCCGUCUCUUUCCCUUCUUUGUCCUUUAGCUUUCGCUUCUCCUUUUUCUUUUUGUCUUUGAGUGACACCAGAGCUGGCAACAGAGGAUUGAGCAUCA
B5: chr11:10819206:10819207:-_ENSG00000110321_ENST00000525681|hu_hu|motif|central (ssRNA)
RNA: GGGAGUUCUACAGUCCGACGAUCUGGUAGACUAUGAUUAAGACAUUACACUACAAAAAAACCUUAUGCAGAAGGAAAUCCGGACUGACGUGCUUCUGCUUUAAAUAUUGUGAAAACAUUACAGCGGAAUGAAUUUUCGCAGUGCAACAGAGGAUUGAGCAUCA
B6: chr17:57762449:57762450:+_ENSG00000141367_ENST00000269122|hu_mus|motif|central (ssRNA)
RNA: GGGAGUUCUACAGUCCGACGAUCUUCGUGUUUUUCCAAACGCUGAGCAAGUGAGAUGUUGUCAAAGUUGUCAUAAGCAUCGGUUGAUGUUCGCAGAGCCUGGUAAUCUUCUUCAGUAAUAAAGAGGUUGUUCAGUGAUUCAUUCAACAGAGGAUUGAGCAUCA
B7: chrX:77160730:77160731:+_ENSG00000131174_ENST00000481445|hu_hu|motif|central (ssRNA)
RNA: GGGAGUUCUACAGUCCGACGAUCUUACUGAUUCCUCCAUUCCUUUGGGGUAACUCUGCCAACAGGGGACAGGUUCCAUUCGGUUCCGACUUGUGUUGCUACAUAUGUCCAUGUAACAAUACAGAAAGUGGCUCCACUAGCUAACAACAGAGGAUUGAGCAUCA
B8: chr11:10819206:10819207:-_ENSG00000110321_ENST00000525681|hu_hu|FALSE|FALSE (ssRNA)
RNA: B5 RNA with G81U, G82A
B9: chr9:96246283:96246284:-_ENSMUSG00000032412_ENSMUST00000034983|mus_mus|motif|central (ssRNA)
RNA: GGGAGUUCUACAGUCCGACGAUCCUGGAGCAUGGCCCACAUUGUGAAUGUGAAGAGUGCAGCCAAGAACCCAUAAAAAACGGGGUAGAAGAGCAAGAUCAGACCCCAGCUCUUGGAGGUGCGCCCCAGAAACUCUCCGCUGCUCAACAGAGGAUUGAGCAUCA
B10: 118363939_118365411_5255_CDS_ENSG00000118058_ENST00000534358|human|control|control (ssRNA)
RNA: GGGAGUUCUACAGUCCGACGAUCUUGCCGAAUGAAGAAGGACUUGACCAUGCUGUUGGCUUUUUUAAUUUCUGGCUGUCCUCCAUCUGAAUUAAUGGCUGCUUGAAUGAUCUUCACAAUAUCAUCACUGAACUCCAACACAGACAACAGAGGAUUGAGCAUCA
B11: chr10:1038518:1038519:+_ENSG00000107937_ENST00000545048|hu_hu|hu_hu_hu_mus_False|1_58 (ssRNA)
RNA: GGGAGUUCUACAGUCCGACGAUCCAGUCUGUCAUGGUAAUUCUGUUGAGUAAAUUUGACUUUUCUCAUAUAAAAAUGUCUAAUGCGAUGAAUUUGAUAAUGUUUAUGAAUAACCGUUGGAGUCUUUCGUUGAGUCUUCGACAACAACAGAGGAUUGAGCAUCA
B12: chrX:71549762:71549763:+_ENSMUSG00000019087_ENSMUST00000019231|mus_mus|mus_mus_mus_hu_False|1_8 (ssRNA)
RNA: GGGAGUUCUACAGUCCGACGAUCAAACCCGUGUACUUCUUAUUGUUAGCACAACAUCACCAGAAAACGAUAACGACAGCCAAGCAGGACAGACAGUUAAGUAGUACUUCCACACUCCCAAACUCAGAGGAACCUCAAGUUCAUCAACAGAGGAUUGAGCAUCA
B13: 33323112_33323610_1834_CDS_ENSG00000005156_ENST00000378526|human|control|control (ssRNA)
RNA: GGGAGUUCUACAGUCCGACGAUCAUCCUGGAAGGCUGCUUUCUUGUGUACUCCCAGAGUCCCAAAGGGCAGUGGUUUGCCUGUCUUGUUGUCAAUCAGAAGCACUUCAGAAUCCAAGAUCAUGCUGUGGCCCCCAGGAAAAGCCAACAGAGGAUUGAGCAUCA
B14: chr2:125074910:125074911:+_ENSMUSG00000027203_ENSMUST00000082122|mus_mus|motif|central (ssRNA)
RNA: GGGAGUUCUACAGUCCGACGAUCCUUUACAGCCAAGCCAGAACGUGGAGCUACUCUUCCAUAGCACCCAGAAGGGACAGCGGUCUGAAUGUCUGUCUUCACGAUGGCUUUCUCCAUGGGUGAUAUUGUAUAAUCAUAGGCACUCAACAGAGGAUUGAGCAUCA

The target of this assay is T1, UNK ZnF1-3. The assay can be described thus: nsRBNS (natural sequence RNA bind-n-seq); RBNS binding buffer (assumed for nsRBNS): 25 mM Tris pH 7.5, 150 mM KCl, 3 mM MgCl2, 0.01% Triton X-100, 500 ug/ml BSA, 20 U/ml SUPERase-In, 4 C; UNK is unkempt and MSI1 is Musashi-1; names of the RNAs are library labels; protein concentration not given here; high values mean tight binding.
The molecule B1 yielded a binding signal of 1.48 enrichment R. Consider B2, for which the binding signal amounted to 1.36 enrichment R. The value for B3 was 0.428 enrichment R; that for B4 was 0.272 enrichment R.

In the case of B5, the binding signal came out at 0.78 enrichment R. Molecule B6 gave a binding signal of 0.712 enrichment R. As for B7, the binding signal worked out at 0.594 enrichment R. B8 returned a binding signal of 0.675 enrichment R. Under B9 stands 1.59 enrichment R; under B10, 0.975 enrichment R; under B11, 0.976 enrichment R. The value for B12 was 1.28 enrichment R; that for B13 was 0.871 enrichment R. B14 showed a binding signal of 0.874 enrichment R.
